Laboratory results from publication PMC4068158.
These are yes or no findings as the source states them, for the method shown. In cells and extracts the contact can be indirect. Some results given as binding are weak or reduced against the parent protein; the word gives no strength. For some assays here: Sequences can lack the tags named with a protein.

Protein sequences, listed by entry. Tags and fused reporters are not part of them. Lines headed by an entry give the natural chain unless they say otherwise; changes in a name come on top. Chains listed by the source or under a name are the forms on record and can include a tag or linker.
UniProt O43681: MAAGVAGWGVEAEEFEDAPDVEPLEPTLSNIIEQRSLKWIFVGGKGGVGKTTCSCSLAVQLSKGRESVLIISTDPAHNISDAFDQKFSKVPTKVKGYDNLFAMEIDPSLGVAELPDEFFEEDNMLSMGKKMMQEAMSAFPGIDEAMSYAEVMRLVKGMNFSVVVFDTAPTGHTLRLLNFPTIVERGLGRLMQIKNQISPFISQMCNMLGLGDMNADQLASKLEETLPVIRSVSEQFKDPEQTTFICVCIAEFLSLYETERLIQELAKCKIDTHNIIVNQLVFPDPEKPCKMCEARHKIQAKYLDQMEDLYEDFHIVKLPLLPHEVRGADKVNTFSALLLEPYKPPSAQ
Flag-FAF1 D295A (Q9UNN5, form named): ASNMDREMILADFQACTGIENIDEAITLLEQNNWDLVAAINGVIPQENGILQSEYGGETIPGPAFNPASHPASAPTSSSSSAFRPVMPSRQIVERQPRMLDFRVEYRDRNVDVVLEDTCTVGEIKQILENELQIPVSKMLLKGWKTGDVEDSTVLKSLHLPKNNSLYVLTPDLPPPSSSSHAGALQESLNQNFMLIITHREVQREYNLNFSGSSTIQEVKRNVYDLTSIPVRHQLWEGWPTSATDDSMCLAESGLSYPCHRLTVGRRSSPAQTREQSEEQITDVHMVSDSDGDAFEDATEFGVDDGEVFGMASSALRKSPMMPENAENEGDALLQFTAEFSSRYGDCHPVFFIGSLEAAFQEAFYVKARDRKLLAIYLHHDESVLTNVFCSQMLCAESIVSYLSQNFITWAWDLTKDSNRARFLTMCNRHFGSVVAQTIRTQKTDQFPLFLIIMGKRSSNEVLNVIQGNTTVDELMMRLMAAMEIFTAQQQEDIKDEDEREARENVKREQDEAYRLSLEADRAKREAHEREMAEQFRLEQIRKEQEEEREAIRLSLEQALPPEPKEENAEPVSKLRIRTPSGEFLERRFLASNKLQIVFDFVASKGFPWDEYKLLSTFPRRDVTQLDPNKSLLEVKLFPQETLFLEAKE
Flag-FAF1 E297A (Q9UNN5, form named): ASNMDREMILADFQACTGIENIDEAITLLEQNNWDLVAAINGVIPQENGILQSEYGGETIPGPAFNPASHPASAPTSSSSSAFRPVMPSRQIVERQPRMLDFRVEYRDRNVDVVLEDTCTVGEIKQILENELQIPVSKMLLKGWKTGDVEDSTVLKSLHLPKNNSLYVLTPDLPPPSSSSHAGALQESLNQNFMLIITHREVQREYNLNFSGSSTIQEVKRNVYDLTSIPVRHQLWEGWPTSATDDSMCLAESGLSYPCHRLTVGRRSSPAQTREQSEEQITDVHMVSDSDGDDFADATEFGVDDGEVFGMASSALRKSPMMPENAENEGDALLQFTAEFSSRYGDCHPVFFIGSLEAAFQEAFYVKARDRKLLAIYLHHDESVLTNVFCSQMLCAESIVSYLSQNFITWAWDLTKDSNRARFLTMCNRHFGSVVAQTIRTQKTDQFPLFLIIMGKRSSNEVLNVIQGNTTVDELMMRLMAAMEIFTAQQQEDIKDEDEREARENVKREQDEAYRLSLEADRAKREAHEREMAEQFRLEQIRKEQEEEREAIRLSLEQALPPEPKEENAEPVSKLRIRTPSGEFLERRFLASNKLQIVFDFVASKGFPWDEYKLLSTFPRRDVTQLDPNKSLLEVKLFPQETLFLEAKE
UniProt O95292: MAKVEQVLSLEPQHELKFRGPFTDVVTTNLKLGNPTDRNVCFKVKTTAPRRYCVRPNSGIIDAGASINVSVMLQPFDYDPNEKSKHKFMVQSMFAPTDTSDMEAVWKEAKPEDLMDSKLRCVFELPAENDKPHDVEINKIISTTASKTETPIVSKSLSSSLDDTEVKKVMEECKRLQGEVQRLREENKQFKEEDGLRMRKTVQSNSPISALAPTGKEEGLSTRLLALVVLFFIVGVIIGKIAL

What was measured:
Assay in all cases: co-IP; anti-Flag M2 beads on lysates of U2OS cells expressing the Flag-tagged bait (transfected or tetracycline-induced); buffer A (50 mM HEPES/KOH pH 7.2, 5 mM Mg(OAc)2, 70 mM KOAc, 0.2% Triton X-100, 10% glycerol, 0.2 mM EDTA), 4°C, 2 hr; endogenous prey by immunoblot; cells untreated, treated with MG132 or with siRNA (FAF1, p97, ASNA1, luciferase) as indicated
Flag-WDR44 Δ1-15 (human) = biological target: T1, Flag-WDR44 Δ1-15 (human) (UniProt Q5JSH3)
T1 sequence: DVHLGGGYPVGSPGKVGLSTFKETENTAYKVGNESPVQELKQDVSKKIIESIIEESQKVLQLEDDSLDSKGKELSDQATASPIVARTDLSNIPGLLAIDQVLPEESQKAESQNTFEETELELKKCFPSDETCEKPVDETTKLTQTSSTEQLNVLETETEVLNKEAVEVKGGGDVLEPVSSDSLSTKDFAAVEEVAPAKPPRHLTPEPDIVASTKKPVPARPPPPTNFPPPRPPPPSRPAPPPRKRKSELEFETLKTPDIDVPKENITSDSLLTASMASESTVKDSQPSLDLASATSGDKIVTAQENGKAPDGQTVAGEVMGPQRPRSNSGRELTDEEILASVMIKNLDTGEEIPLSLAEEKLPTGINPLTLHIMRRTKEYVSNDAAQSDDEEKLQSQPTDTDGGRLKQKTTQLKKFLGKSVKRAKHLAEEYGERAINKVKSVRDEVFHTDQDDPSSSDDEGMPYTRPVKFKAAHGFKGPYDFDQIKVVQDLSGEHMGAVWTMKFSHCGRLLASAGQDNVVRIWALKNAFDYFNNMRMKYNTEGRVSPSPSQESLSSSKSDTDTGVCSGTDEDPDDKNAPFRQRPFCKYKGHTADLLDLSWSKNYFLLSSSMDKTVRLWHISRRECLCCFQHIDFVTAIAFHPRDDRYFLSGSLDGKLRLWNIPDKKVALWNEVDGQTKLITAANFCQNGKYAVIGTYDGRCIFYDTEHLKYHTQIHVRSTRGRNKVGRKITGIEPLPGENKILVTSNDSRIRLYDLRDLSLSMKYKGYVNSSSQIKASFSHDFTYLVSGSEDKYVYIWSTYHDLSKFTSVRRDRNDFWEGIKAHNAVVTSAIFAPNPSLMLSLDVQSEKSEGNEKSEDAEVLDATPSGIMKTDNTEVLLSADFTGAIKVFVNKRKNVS

[1] = biological target: Flag-ASNA1 wild type (human) (UniProt O43681)
Flag-FAF1 D295A (human) = Flag-FAF1 D295A (human) (UniProt Q9UNN5)
Flag-FAF1 E297A (human) = Flag-FAF1 E297A (human) (UniProt Q9UNN5)
[2] = biological target: T2, Flag-WDR44 wild type (human) (UniProt Q5JSH3)
T2 sequence: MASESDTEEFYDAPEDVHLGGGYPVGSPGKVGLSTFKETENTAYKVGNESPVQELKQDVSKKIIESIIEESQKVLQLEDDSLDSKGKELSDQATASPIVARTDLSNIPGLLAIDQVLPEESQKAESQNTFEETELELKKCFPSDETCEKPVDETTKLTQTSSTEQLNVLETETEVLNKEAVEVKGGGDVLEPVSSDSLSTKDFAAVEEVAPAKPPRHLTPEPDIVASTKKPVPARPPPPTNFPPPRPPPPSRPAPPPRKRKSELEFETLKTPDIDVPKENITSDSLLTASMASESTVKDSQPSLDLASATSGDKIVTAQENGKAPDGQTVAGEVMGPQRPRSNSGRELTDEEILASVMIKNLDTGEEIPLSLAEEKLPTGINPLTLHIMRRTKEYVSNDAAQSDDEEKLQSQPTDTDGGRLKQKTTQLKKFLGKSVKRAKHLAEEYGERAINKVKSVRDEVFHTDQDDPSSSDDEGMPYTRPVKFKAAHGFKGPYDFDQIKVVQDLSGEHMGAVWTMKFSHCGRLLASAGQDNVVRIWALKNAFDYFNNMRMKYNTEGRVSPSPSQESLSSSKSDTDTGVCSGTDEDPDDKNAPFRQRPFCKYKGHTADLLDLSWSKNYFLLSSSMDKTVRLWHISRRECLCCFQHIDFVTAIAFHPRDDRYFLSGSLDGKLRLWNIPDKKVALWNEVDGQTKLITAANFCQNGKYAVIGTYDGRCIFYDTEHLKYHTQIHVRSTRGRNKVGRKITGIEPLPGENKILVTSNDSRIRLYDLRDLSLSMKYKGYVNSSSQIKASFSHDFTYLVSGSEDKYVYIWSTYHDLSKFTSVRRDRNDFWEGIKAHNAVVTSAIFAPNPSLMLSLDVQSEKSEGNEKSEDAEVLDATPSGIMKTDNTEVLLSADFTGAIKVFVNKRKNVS

For “endogenous VAPB (human cells) (from UniProt O95292 1-243)”, the binding (Flag-WDR44 Δ1-15 (human)) was “no binding”, the binding [1] was “binds” and the binding (Flag-FAF1 D295A (human)) was “binds”. The binding (Flag-FAF1 E297A (human)) was “binds” and the binding [2] was “binds”.
